{
  "source": "paper PMC10182836",
  "about": "(Molecular cell, 2023)",
  "target": "the molecule itself",
  "experiment": "cryo-EM structure",
  "data": [
    {"protein": "Cbf1 (full-length Cbf1 used for cryo-EM, Cbf1([…])) (natural protein) not shown", "values": [
      {"measurement": "binding result", "result": "binds"}
    ]}
  ]
}
